Measured values taken from the supplement of paper PMC8728848.
The other results are listed elsewhere or left out.

Assays:
Assay in all cases: glycan array binding signal (z-score within array); higher = stronger binding
Conditions in all cases: glycan notation: IUPAC condensed, linker removed
[1] = target: Gal(a1-3)Gal(b1-4)GlcNAc(b1-2)Man
Outline: (§1)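 Negative Z-scores can be read as non-binding. The Z-score is calculated within each array and then averaged across arrays of one protein sequence at different concentrations or buffers and across linkers. Arrays, 3228 in all, were curated from the Consortium for Functional Glycomics database and kept only where the protein sequence was available.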

[2] = target: Gal(a1-3)Gal(b1-4)GlcNAc(b1-2)Man(a1-3)[Gal(a1-3)Gal(b1-4)GlcNAc(b1-2)Man(a1-6)]Man(b1-4)GlcNAc(b1-4)GlcNAc
Outline: as §1

[3] = target: Gal(a1-3)Gal(b1-4)GlcNAc(b1-3)GalNAc
Outline: as §1

[4] = target: Gal(a1-3)Gal(b1-4)GlcNAc(b1-6)GalNAc
Outline: as §1

[5] = target: Gal(a1-3)Gal(b1-4)[Fuc(a1-3)]GlcNAc
Outline: as §1

[6] = target: Gal(a1-3)Gal(b1-4)[Fuc(a1-3)]GlcNAc(b1-2)Man(a1-3)[Gal(a1-3)Gal(b1-4)[Fuc(a1-3)]GlcNAc(b1-2)Man(a1-6)]Man(b1-4)GlcNAc(b1-4)GlcNAc
Outline: as §1

Gal(a1-3)GalNAc = target: Gal(a1-3)GalNAc
Outline: as §1

[7] = target: Gal(a1-3)[Gal(a1-4)]Gal(b1-4)GlcNAc
Outline: as §1

[8] = target: Gal(a1-4)Gal(b1-3)GlcNAc(b1-2)Man(a1-3)[Gal(a1-4)Gal(b1-3)GlcNAc(b1-2)Man(a1-6)]Man(b1-4)GlcNAc(b1-4)GlcNAc
Outline: as §1

Gal(a1-4)Gal(b1-4)Glc = target: Gal(a1-4)Gal(b1-4)Glc
Outline: as §1

Gal(a1-4)Gal(b1-4)GlcNAc = target: Gal(a1-4)Gal(b1-4)GlcNAc
Outline: as §1

[9] = target: Gal(a1-4)Gal(b1-4)GlcNAc(b1-2)Man(a1-3)[Gal(a1-4)Gal(b1-4)GlcNAc(b1-2)Man(a1-6)]Man(b1-4)GlcNAc(b1-4)GlcNAc
Outline: as §1

[10] = target: Gal(a1-4)Gal(b1-4)GlcNAc(b1-3)Gal(b1-4)Glc
Outline: as §1

Gal(a1-4)GlcNAc = target: Gal(a1-4)GlcNAc
Outline: as §1

Gal(a1-6)Glc = target: Gal(a1-6)Glc
Outline: as §1

Gal(b1-2)Gal = target: Gal(b1-2)Gal
Outline: as §1

Gal(b1-3)Gal = target: Gal(b1-3)Gal
Outline: as §1

Gal(b1-3)Gal(b1-4)GlcNAc = target: Gal(b1-3)Gal(b1-4)GlcNAc
Outline: as §1

Gal(b1-3)GalNAc = target: Gal(b1-3)GalNAc
Outline: as §1

[11] = target: Gal(b1-3)GalNAc(a1-3)[Fuc(a1-2)]Gal(b1-4)Glc
Outline: as §1

[12] = target: Gal(b1-3)GalNAc(a1-3)[Fuc(a1-2)]Gal(b1-4)GlcNAc
Outline: as §1

Gal(b1-3)GalNAc(b1-3)Gal = target: Gal(b1-3)GalNAc(b1-3)Gal
Outline: as §1

[13] = target: Gal(b1-3)GalNAc(b1-3)Gal(a1-4)Gal(b1-4)Glc
Outline: as §1

[14] = target: Gal(b1-3)GalNAc(b1-4)Gal(b1-4)Glc
Outline: as §1

[15] = target: Gal(b1-3)GalNAc(b1-4)[Neu5Ac(a2-3)]Gal(b1-4)Glc
Outline: as §1

Gal(b1-3)GlcNAc = target: Gal(b1-3)GlcNAc
Outline: as §1

[16] = target: Gal(b1-3)GlcNAc(a1-3)Gal(b1-4)GlcNAc
Outline: as §1

[17] = target: Gal(b1-3)GlcNAc(a1-6)Gal(b1-4)GlcNAc
Outline: as §1

Gal(b1-3)GlcNAc(b1-2)Man = target: Gal(b1-3)GlcNAc(b1-2)Man
Outline: as §1

[18] = target: Gal(b1-3)GlcNAc(b1-2)Man(a1-3)[Gal(b1-3)GlcNAc(b1-2)Man(a1-6)]Man(b1-4)GlcNAc(b1-4)GlcNAc
Outline: as §1

[19] = target: Gal(b1-3)GlcNAc(b1-2)Man(a1-3)[Gal(b1-3)GlcNAc(b1-2)Man(a1-6)]Man(b1-4)GlcNAc(b1-4)[Fuc(a1-6)]GlcNAc
Outline: as §1

[20] = target: Gal(b1-3)GlcNAc(b1-2)Man(a1-3)[GlcNAc(b1-4)][Gal(b1-3)GlcNAc(b1-2)Man(a1-6)]Man(b1-4)GlcNAc(b1-4)GlcNAc
Outline: as §1

[21] = target: Gal(b1-3)GlcNAc(b1-2)[Gal(b1-3)GlcNAc(b1-6)]Man(a1-6)[Gal(b1-3)GlcNAc(b1-2)Man(a1-3)]Man(b1-4)GlcNAc(b1-4)GlcNAc
Outline: as §1

[22] = target: Gal(b1-3)GlcNAc(b1-3)Gal(b1-3)GlcNAc
Outline: as §1

[23] = target: Gal(b1-3)GlcNAc(b1-3)Gal(b1-4)Glc
Outline: as §1

[24] = target: Gal(b1-3)GlcNAc(b1-3)Gal(b1-4)GlcNAc
Outline: as §1

[25] = target: Gal(b1-3)GlcNAc(b1-3)Gal(b1-4)GlcNAc(b1-2)Man(a1-3)[Gal(b1-3)GlcNAc(b1-3)Gal(b1-4)GlcNAc(b1-2)Man(a1-6)]Man(b1-4)GlcNAc(b1-4)GlcNAc
Outline: as §1

B1: PX14367A-bth-493-35-493 (Bacteroides thetaiotaomicron) (protein)
chain: VSSDQVAVAGNAERLFNGAWYNLFEYGTTYANIGYRALQCQDDMMASDVVSRPKYGFNSSYQFNDVAIPSDGRTSFAWYLIYKTIDNCNTAISIKGDSEELRQAQGQALALRAFCYLHLVQHYQFTYLKDKDAPCVPIYTEPTTSGTKPKGKSTVAQVYQQIFDDLNLAQDYLTNYVRKGDGQKFKPNTDVVNGLMARAYLLTGQWGEAAKAAEAARKGYSLMTTTAEYEGFNNISNKEWIWGSPQTLSQSDASYNFYYLDATYVGAYSSFMADPHLMDTFVKGDIRLPLFQWMREGYLGYKKFHMRSDDTADLVLMRSAEMYLIEAEAKVRDGVALDQAVAPLNTLRTARGVGNYDVTGKTKEQVIDEILMERRRELWGEGFGITDVLRNQKAVERMALSEDMQKTEVDCWQEGGSFAKRNPLGHWFLNFPDGKAFSANSSYYLYAIPEKEINANPNL
glycan array binding signal (z-score) [1]: -0.302
glycan array binding signal (z-score) [2]: 3.93
glycan array binding signal (z-score) [3]: -0.149
glycan array binding signal (z-score) [4]: -0.504
glycan array binding signal (z-score) [5]: -0.375
glycan array binding signal (z-score) [6]: -0.087
glycan array binding signal (z-score) (Gal(a1-3)GalNAc): -0.317
glycan array binding signal (z-score) [7]: -0.467
glycan array binding signal (z-score) [8]: 2.23
glycan array binding signal (z-score) (Gal(a1-4)Gal(b1-4)Glc): 0.562
glycan array binding signal (z-score) (Gal(a1-4)Gal(b1-4)GlcNAc): 0.078
glycan array binding signal (z-score) [9]: 0.279
glycan array binding signal (z-score) [10]: -0.539
glycan array binding signal (z-score) (Gal(a1-4)GlcNAc): -0.008
glycan array binding signal (z-score) (Gal(a1-6)Glc): -0.506
glycan array binding signal (z-score) (Gal(b1-2)Gal): 0.286
glycan array binding signal (z-score) (Gal(b1-3)Gal): -0.437
glycan array binding signal (z-score) (Gal(b1-3)Gal(b1-4)GlcNAc): -0.434
glycan array binding signal (z-score) (Gal(b1-3)GalNAc): -0.295
glycan array binding signal (z-score) [11]: -0.428
glycan array binding signal (z-score) [12]: 0.204
glycan array binding signal (z-score) (Gal(b1-3)GalNAc(b1-3)Gal): -0.328
glycan array binding signal (z-score) [13]: -0.087
glycan array binding signal (z-score) [14]: -0.527
glycan array binding signal (z-score) [15]: -0.367
glycan array binding signal (z-score) (Gal(b1-3)GlcNAc): -0.271
glycan array binding signal (z-score) [16]: -0.265
glycan array binding signal (z-score) [17]: -0.24
glycan array binding signal (z-score) (Gal(b1-3)GlcNAc(b1-2)Man): 0.115
glycan array binding signal (z-score) [18]: 1.11
glycan array binding signal (z-score) [19]: 1.58
glycan array binding signal (z-score) [20]: 1.39
glycan array binding signal (z-score) [21]: 0.187
glycan array binding signal (z-score) [22]: -0.152
glycan array binding signal (z-score) [23]: -0.503
glycan array binding signal (z-score) [24]: -0.664
glycan array binding signal (z-score) [25]: 0.827
